Reference: the supplement of paper PMC3334620
Over roughly 33,000 sequences, “E-score (-0.5 to 0.5)” has its median near -0.056; the highest 2% begin near 0.38. Some of the results follow.

These sequences were tested against Stb4 (UniProt P50104) (assay: PBM E-score (8-mer binding enrichment) (E-score (-0.5 to 0.5)); higher = stronger / more preferred TF binding; most listed sequences are background and not binding sites). Details: protein concentration: 200 nM; construct: GST-DNA-binding domain.
Procedure, shortened: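 Bound GST-tagged yeast transcription factors, applied at about 100-200 nM to double-stranded universal all-10-mer Agilent arrays, were detected with fluorescent anti-GST. Scans were normalised with masliner. A modified Wilcoxon-Mann-Whitney statistic, the E-score, was assigned to each ungapped eight-base word pooled with its reverse complement by the Universal PBM Analysis Suite.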

Row | Sequence | PBM E-score
1 | TATTTCGA | 0.00011
2 | CCTCCCTA | -0.108
3 | CTCAGCTC | -0.0376
4 | GATGGAGA | 0.0275
5 | ATGACAGC | -0.336
6 | GAGGAAGC | -0.0209
7 | ACGGGGCC | 0.0121
8 | CTCGATCC | 0.135
9 | CTTTAAGC | 0.0905
10 | CTCTACCC | -0.109
11 | AAGATCTC | -0.249
12 | GGGAACAC | 0.194
13 | AATACTAG | -0.132
14 | CGACCAAC | -0.0813
15 | GTGGAAAA | -0.0215
16 | GTGCGAAA | -0.159
17 | AGACCACG | -0.204
18 | AAACAAGA | -0.0845
19 | AGGACTTC | -0.164
20 | GGTGAGTA | -0.183
21 | AGCAGCGC | -0.139
22 | CAAAACCC | 0.251
23 | AGTAGCAA | 0.00951
24 | CCAGCGTC | -0.147
25 | CACTCATC | -0.079

Row | Sequence | PBM E-score
26 | CGCGCCAC | -0.18
27 | AGACCCAA | -0.186
28 | CGCGATCC | 0.142
29 | GACAATGC | -0.0855
30 | GAGATCCA | 0.0196
31 | TAGTTATA | -0.0948
32 | ACACGAAA | -0.0666
33 | GTCAATTA | -0.00661
34 | ACGGTGCG | -0.0311
35 | AGAGATTC | -0.00647
36 | GGCAACAA | -0.0697
37 | AGATCTGG | -0.188
38 | AATTCCGA | 0.46
39 | GTCACTGA | -0.129
40 | CATCTTCG | 0.0105
41 | ACATGCCT | -0.245
42 | TATTGTCA | -0.136
43 | ATTCTGAG | -0.0695
44 | ATTTCACA | -0.0887
45 | ACCGCCGA | 0.298
46 | CTTACAAA | -0.0816
47 | GACTACCA | -0.129
48 | CCGGGTAA | 0.418
49 | GAGGCTGC | -0.0871
50 | CGAGCCCC | 0.109

Row | Sequence | PBM E-score
51 | AACCGTGC | 0.105
52 | ACATTCTA | -0.187
53 | CCAATAGA | -0.222
54 | CGATACCA | -0.0346
55 | GGGTATAA | 0.145
56 | CTGACTAA | -0.137
57 | CGGTAGCC | 0.178
58 | GAAGAATC | 0.251
59 | CTGTATCA | -0.213
60 | ATTGTTGG | 0.00265
61 | AGTGGGAA | 0.077
62 | CACTCTGA | -0.114
63 | CAGTTCGA | -0.262
64 | CATCTGGA | 0.0219
65 | CCGGCGTA | 0.138
66 | CCTTCGAG | -0.13
67 | GATTTTTA | 0.097
68 | GATAGCCC | 0.0264
69 | AACGTGCA | -0.184
70 | AGCACTAG | -0.1
71 | GCAGATAC | 0.105
72 | CTGATATA | 0.0665
73 | GTTCATCA | -0.158
74 | ACGACTCT | -0.22
75 | CGATCACC | 0.017

Row | Sequence | PBM E-score
76 | CTGCGAAA | -0.152
77 | AGCTGACT | -0.141
78 | CTGTAGTA | -0.0968
79 | GAACTGCC | 0.148
80 | ATGGAGTC | 0.116
81 | GACCGATA | 0.0851
82 | ATCTGCGA | -0.265
83 | CCCGATCG | 0.363
84 | ACGCAACT | -0.0227
85 | CTTGGATC | -0.0751
86 | CGGTGGAA | 0.06
87 | AGGGAAAG | -0.198
88 | GAAGATAA | 0.151
89 | AACTTAAG | -0.117
90 | CAAGTCAG | -0.185
91 | CACATTAG | -0.195
92 | ATTGCTAA | -0.204
93 | CGGAACTA | 0.449
94 | GGATATCC | 0.299
95 | AGACGACT | -0.0964
96 | GAATATCC | 0.244
97 | AGGGAGGA | -0.265
98 | ACTGTGGA | -0.345
99 | GATCCGCC | 0.273
100 | CGCCTGAC | -0.0857

Row | Sequence | PBM E-score
101 | GTCGAGCA | -0.295
102 | ATTCCCTG | 0.0358
103 | GTAGCTAC | -0.122
104 | AGCAGTAG | -0.261
105 | CCGCCTAG | 0.00339
106 | AATGGTCC | 0.165
107 | AGACCAGA | -0.278
108 | AAGCGCAA | 0.0625
109 | CTGGGTCC | -0.0588
110 | CCATGTCC | 0.0121
111 | GGCCGCAA | -0.0791
112 | CGAACGTA | 0.0822
113 | AATGTCGT | -0.0403
114 | ACGGACCC | 0.0961
115 | GCGAACCC | -0.00826
116 | AGAAAACT | -0.226
117 | ACGTAAAT | -0.00272
118 | AGAGACAC | -0.157
119 | CGTTAGAA | -0.0347
120 | ACTTCCTA | -0.113
121 | AGCGCGTC | -0.202
122 | ACACTAAA | -0.0159
123 | GCAGCACC | -0.0822
124 | CGGGTGCA | 0.292
125 | GTAACTAA | 0.0906

Row | Sequence | PBM E-score
126 | CCCCTGCA | -0.158
127 | GACATCAC | -0.0606
128 | CAGTGGGC | -0.26
129 | CAATGGCC | -0.0728
130 | AATGACTC | -0.219
131 | AATGACAG | -0.215
132 | GACTTGCC | -0.036
133 | ACAAGAGA | -0.0935
134 | ATACATTC | -0.0959
135 | CTAGGCAA | -0.0033
136 | CATCACGA | -0.285
137 | CTCTGTCC | -0.153
138 | CATATTGA | -0.233
139 | AGCCCGGA | 0.361
140 | CATTGGAG | -0.153
141 | CAAACGCA | -0.159
142 | CGGTGCTA | 0.103
143 | CATCTAAC | -0.0907
144 | ACCTACGT | 0.036
145 | CAACCCTG | -0.0278
146 | CTACGAAG | -0.247
147 | GGGACTTA | -0.0226
148 | CATGCACA | -0.169
149 | GCGCATGA | -0.204
150 | ATCGCACA | -0.278

Row | Sequence | PBM E-score
151 | AACGTGGG | -0.177
152 | CAATGTTC | 0.0672
153 | AGCATCCG | 0.419
154 | ATGCTCTG | -0.198
155 | CCTCTCGA | -0.276
156 | ACGGCGCC | -0.0157
157 | GGATTGTA | 0.11
158 | CAACAAGC | -0.117
159 | ATATAGGC | 0.0799
160 | ACCGAAAA | 0.337
161 | GGGGCTAA | -0.138
162 | GGGTGCTA | 0.0706
163 | AACCTTAA | 0.0731
164 | AAAGTCTC | -0.187
165 | GCAATTGC | 0.0399
166 | TGATTTAA | 0.0668
167 | CCACGTGA | -0.206
168 | ACAGCGAG | -0.115
169 | CCTGTATA | -0.136
170 | ACATTAAA | -0.0486
171 | CCTATTTC | -0.0481
172 | CGTACTCC | 0.1
